Assay results taken from publication PMC4336329 (PLoS ONE, 2015).
About 14,000 (4.5%) of roughly 310,000 compounds showed an effect of 50% or more. The effect is printed as a negative number. This is one part of the list.

biological target: human ether-à-go-go-related gene (hERG) potassium channel (human, UniProt Q12809); experiment: primary screen, population patch clamp on CHO cells stably expressing hERG
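Further: peak tail current of the secondary pulse compared with the same well before compound.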

human ether-à-go-go-related gene (hERG) potassium channel, sequence (Q12809 whole entry, looked up): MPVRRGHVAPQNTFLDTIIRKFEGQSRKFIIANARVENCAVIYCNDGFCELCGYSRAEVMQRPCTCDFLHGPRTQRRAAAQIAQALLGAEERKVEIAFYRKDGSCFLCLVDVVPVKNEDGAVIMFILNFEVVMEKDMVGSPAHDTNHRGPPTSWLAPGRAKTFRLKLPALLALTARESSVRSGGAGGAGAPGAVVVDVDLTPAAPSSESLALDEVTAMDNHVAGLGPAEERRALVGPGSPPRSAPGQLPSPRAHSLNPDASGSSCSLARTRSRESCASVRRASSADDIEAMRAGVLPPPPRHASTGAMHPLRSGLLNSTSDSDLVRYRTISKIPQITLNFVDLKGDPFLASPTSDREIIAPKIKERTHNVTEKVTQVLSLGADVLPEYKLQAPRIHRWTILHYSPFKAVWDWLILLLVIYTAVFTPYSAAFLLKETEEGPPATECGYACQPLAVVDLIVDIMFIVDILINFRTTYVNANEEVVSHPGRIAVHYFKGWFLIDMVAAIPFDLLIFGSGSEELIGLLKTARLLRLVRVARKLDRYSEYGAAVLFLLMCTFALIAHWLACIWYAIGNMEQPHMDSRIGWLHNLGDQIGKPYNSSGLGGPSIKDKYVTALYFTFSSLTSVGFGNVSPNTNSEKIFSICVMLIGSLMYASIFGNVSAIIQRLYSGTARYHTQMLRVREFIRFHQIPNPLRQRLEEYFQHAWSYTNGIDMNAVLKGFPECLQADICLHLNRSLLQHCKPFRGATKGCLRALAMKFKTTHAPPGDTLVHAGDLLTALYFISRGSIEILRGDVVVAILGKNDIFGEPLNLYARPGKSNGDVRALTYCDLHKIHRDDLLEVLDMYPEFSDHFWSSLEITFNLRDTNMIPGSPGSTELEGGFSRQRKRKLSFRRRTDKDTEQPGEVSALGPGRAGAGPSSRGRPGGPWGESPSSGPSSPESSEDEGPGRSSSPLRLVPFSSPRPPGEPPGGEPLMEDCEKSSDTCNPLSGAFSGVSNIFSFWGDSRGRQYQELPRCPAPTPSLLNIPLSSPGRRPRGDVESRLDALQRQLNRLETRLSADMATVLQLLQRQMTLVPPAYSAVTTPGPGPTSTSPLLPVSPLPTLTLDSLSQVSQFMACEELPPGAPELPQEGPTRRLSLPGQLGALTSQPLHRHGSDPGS

Row | Compound | hERG current change (%, negative = inhibition) at 10uM
1 | CCOC(=O)C1=C(C)N=C2SC(C)C(=O)N2C1c1ccccc1 (centres unmarked) | -11.4%
2 | COc1ccc(NC(=O)c2cc3ccccc3cc2OC)cc1 | -1.84%
3 | CCCNC(=S)N1CCN(C(c2ccccc2)c2ccccc2)CC1 | 6.18%
4 | Cc1cccc(/C=C2\Oc3cc(OS(C)(=O)=O)ccc3C2=O)c1 | 5.7%
5 | CCCNC(=O)N1CCC(c2ccc3c(c2)OCO3)CC1 | -1.99%
6 | C/C=C/c1ccc(OCCCCN(C)Cc2ccccc2)c(OC)c1.O=C(O)C(=O)O | -79.4%
7 | CSc1ccc(-c2c(C#N)c(N)nc3c2CCCC3)cc1 | 2.5%
8 | COc1cccc(CN2C(=O)C3(C(C#N)=C(N)OC4=C3C(=O)CCC4)c3ccccc32)c1 (centres unmarked) | -3.52%
9 | CC1=C(C(=O)Nc2ccc(F)cc2)C(c2cccc(C)c2)n2nc(CCCO)nc2N1 (centres unmarked) | 11.4%
10 | CCc1ccc(C(=O)C(C)OC(=O)c2nn(C)c(=O)c3ccccc23)cc1 (centres unmarked) | -9.08%
11 | COc1cccc(NC(=S)NC(=O)c2c(Cl)c(C)nn2C)c1 | -4.74%
12 | Cc1cc(C)nc(SCC(=O)Nc2ccc(Br)cn2)n1 | -5.2%
13 | Cc1cc(NC(=O)CCSc2ccc(Cl)cc2)no1 | 1.11%
14 | O=C(NCC1CCCCC1)C1(CC2CC(c3ccc(Cl)cc3)=NO2)CCNCC1 (centres unmarked) | -71.6%
15 | Cc1cnn(C2CCN(C)CC2)c1N | 11.2%
16 | COc1ccc(N2C(=O)CC(Nc3ccc(C)cc3)C2=O)cc1 (centres unmarked) | -6.7%
17 | CC(C)[C@H](NC(=O)CCn1nnc2ccccc2c1=O)C(=O)O | 22%
18 | CCOC(=O)c1cc(C#N)c(N2CCCNCC2)nc1C(F)(F)F | -25.8%
19 | C=CCNC(=O)/C(C#N)=C/c1c(N2CCN(c3ccccc3)CC2)nc2c(C)cccn2c1=O | -15.9%
20 | CN(C)c1nnnn1-c1ccc(Cl)cc1Cl | 0.276%
21 | Cc1ccc(NC(=O)CSc2nn3c(=O)c(C)nnc3s2)cc1Cl | -0.177%
22 | COc1ccccc1OCCOc1ccc(/C=C2\C(=N)N3N=C(C)SC3=NC2=O)cc1 | 14.4%
23 | CCCOc1cccc(NC(=O)OC2CCN(C)CC2)c1.O=C(O)/C=C/C(=O)O | -15.7%

Row | Compound | hERG current change (%, negative = inhibition) at 10uM
24 | O=C(NCCCN1CCCC1=O)c1ccccc1NS(=O)(=O)c1ccc(F)cc1 | -5.95%
25 | Fc1cc(F)cc(NC(=S)N2CCC(c3ccccc3)C2)c1 (centres unmarked) | 12.2%
26 | Cc1ccc(Nc2nnc(SCC(=O)Nc3cccnc3Cl)s2)cc1C | 0.963%
27 | CNc1nc(SCC(=O)Nc2ccc(Cl)c(Cl)c2)nc(N2CCOCC2)n1 | 1.02%
28 | O=C1c2ccccc2S(=O)(=O)c2cc(N3CCC4(CC3)OCCO4)ccc21 | 1.66%
29 | CC(NC(=O)c1ccc(OC2CCN(S(=O)(=O)N(C)C)CC2)cc1)C1CC1 (centres unmarked) | -10.4%
30 | Cc1ccc(N(CC(=O)NC2CCCCC2)S(=O)(=O)c2c(C)nn(C)c2C)cc1 | -12.7%
31 | Cn1c(SCC(=O)NC2CCCCC2)nnc1-c1cccnc1 | 7.47%
32 | CC(=O)Nc1ccc(NC(=O)C(C)O/N=C/c2cccc([N+](=O)[O-])c2)cc1 (centres unmarked) | -20.3%
33 | Cc1onc(-c2c(F)cccc2Cl)c1-c1nnc(-c2cccc3ccccc23)o1 | 8.62%
34 | COc1cc(NC(=O)c2cccs2)c(C(=O)OCC(=O)c2cc(C)n(-c3ccccc3)c2C)cc1OC | 11.8%
35 | Cc1ccc(S(=O)(=O)Nc2cc3c(cc2C#N)OCO3)cc1C(N)=O | 17.1%
36 | CCCc1cc(=O)[nH]c2nnc(SCC(=O)Nc3ccc(C(C)=O)cc3)n12 | -6.09%
37 | Cc1ccc(C)c(OCC(O)CN2CCC(Cc3ccccc3)CC2)c1.Cl (centres unmarked) | -67.6%
38 | Cc1nn(C(=O)CCC(=O)NCCc2ccccc2)c2ccccc12 | 27.2%
39 | COc1ccccc1NC(=O)C1CCN(C(=O)c2ccc(C(C)(C)C)cc2)CC1 | -37.8%
40 | CCCc1cc(=O)n2[nH]c(SCc3ccc(Cl)cc3)nc2n1 | 19.2%
41 | Cc1cccc(S(=O)(=O)Nc2nc3ccccc3nc2Nc2cccc(C(=O)O)c2)c1 | 15.9%
42 | C/C(CC(C)C)=N/Nc1ccc([N+](=O)[O-])cc1[N+](=O)[O-] | -17%
43 | COc1ccc(C2=NOC(C(=O)NCc3cccs3)C2)cc1 (centres unmarked) | 11.1%
44 | COc1ccccc1CNC(=O)Cn1cnnn1 | 14.5%
45 | O=C(NCc1nnc(SCC(=O)N2CCCC2)o1)c1c(F)cccc1Cl | 23.7%
46 | CCn1c(C)nc2cc(S(=O)(=O)C(F)F)ccc21 | -13.7%

Row | Compound | hERG current change (%, negative = inhibition) at 10uM
47 | O=C1C(Cl)=C(NC(=O)c2ccccc2)C(=O)C(Cl)=C1NC(=O)c1ccccc1 | 17.7%
48 | C=CCn1c(Oc2cccc(C)c2)nc2c1c(=O)n(C)c(=O)n2C | -4.46%
49 | O=C(Cc1ccccc1)Nc1ccc(C(=O)Nc2ccccc2C(=O)O)cc1 | 12.7%
50 | Cc1cccc(C)c1NC(=O)CNC(=O)c1c(-c2ccccc2)noc1C | 11.1%
51 | CCNC(=S)NCCN1CCCCC1.Cl | 18.8%
52 | NC(=O)N/N=C/c1cn(-c2ccccc2)nc1-c1cccs1 | -38.8%
53 | O=C(Nc1ccccc1)c1ccc2snnc2c1 | 10.3%
54 | N#Cc1ccccc1Cn1cc(/C=C/[N+](=O)[O-])c2ccccc21 | -2.44%
55 | N#CC(CO)(Cc1ccc(OC(F)F)cc1)c1nc2ccccc2[nH]1 (centres unmarked) | -52%
56 | O=C(CSc1nnnn1-c1ccc(F)cc1)NC1CCCCC1 | 10.2%
57 | COc1ccc(C(=O)c2ccccc2)c(OCC(=O)N(C)C)c1 | 8.31%
58 | COc1ccc(C)cc1S(=O)(=O)N(CC(=O)Nc1cccc([N+](=O)[O-])c1)c1ccc(C)cc1 | -2.47%
59 | Cn1c(C(=O)OC(C(=O)NC2CCCCC2)c2cccnc2)cc2sccc21 (centres unmarked) | -25%
60 | CC(C)NC(=O)NC(=O)CSc1nnc(COc2ccccc2F)n1C(C)C1CC2CCC1C2 (centres unmarked) | -3.12%
61 | Cn1c(=O)c2c(nc(NN=C3CCCCC3)n2C)n(C)c1=O | 19.1%
62 | CCCCNC(=O)C1CCN(S(=O)(=O)N2CCOCC2)CC1 | 5.58%
63 | CN(C)C(=C(C#N)C#N)N1CCN(c2ccc(Cl)cc2)CC1 | -48.3%
64 | CSc1cccc(CN2CCCC(CNC(=O)c3ccc(F)cc3)C2)c1 (centres unmarked) | -74.1%
65 | COC(=O)c1ccc(NC(=O)CSc2nncc3ccc(OC)c(OC)c23)cc1 | -12.5%
66 | COc1ccc(OC)c(NC(=O)c2ccc(NC(C)=O)cc2)c1 | 4.18%
67 | c1ccc(Oc2nc(-c3cccnc3)nc3ccccc23)cc1 | 2.26%
68 | CCCCn1c(=O)[nH]c(=O)c2c1nc(CN1C(=O)c3ccccc3S1(=O)=O)n2CCC | -32.2%
69 | CCn1cnc2cc(NCc3cccc(OC)c3O)ccc21 | -5.91%

Row | Compound | hERG current change (%, negative = inhibition) at 10uM
70 | Cc1cc(Cl)c2oc(C(=O)N(C)C(C)c3ccccn3)c(C)c2c1 (centres unmarked) | -10.5%
71 | CSc1cccc(CNC(=O)C2CCC(=O)N(Cc3cccc(C(F)(F)F)c3)C2)c1 (centres unmarked) | -21%
72 | COC(=O)C1=C(c2cccc(Cl)c2)C[C@@H]2CC[C@H]1N2C(=O)N1CCCC1 | -11.2%
73 | CCCCCN(C(=O)NC(=O)Nc1nncs1)S(C)(=O)=O | 9.21%
74 | O=C(c1cccnc1)N1CCN(C(=O)c2ccccc2F)CC1 | -12.9%
75 | COc1ccccc1OCCCn1c(C)c(C#N)c2ccccc21 | -2.85%
76 | Cc1cc2c(cc1S(=O)(=O)N1CCOCC1)NC(=O)CO2 | 22%
77 | CC(=O)Nc1ccc(S(=O)(=O)C(C#N)c2nc3ccccc3nc2NCCN2CCOCC2)cc1 (centres unmarked) | 5.33%
78 | Cc1ccccc1NC(=O)CSCC(=O)Nc1ccccc1C | -9.46%
79 | Cc1ccc(N2C(=O)C3C(C2=O)C(C(=O)c2ccc(Cl)cc2)N2CCCC32)cc1 (centres unmarked) | 2.31%
80 | COc1cc(/C=N/NC(=O)c2ccc(CN(C)S(=O)(=O)c3ccc(C)cc3)cc2)ccc1O | 5.98%
81 | Clc1nc2sccn2c1/C=N/n1cnc2ccccc21 | -10%
82 | O=c1c2ccccc2[nH]c(=S)n1CCN1CCCCC1 | -1.11%
83 | Cc1ccc(C(C(=O)NCC2CCCO2)N(C(=O)c2snc(C(N)=O)c2N)c2ccc(F)cc2)o1 (centres unmarked) | 8.46%
84 | Cc1cccc(C)c1N=C1SC(CC(=O)Nc2c(C)cccc2C)C(=O)N1CCc1ccccn1 (centres unmarked) | -1.86%
85 | CCCC(=O)Nc1nc(CC(=O)OCC)cs1 | 9.54%
86 | CCOC(=O)N1CCN(C(=S)NC2CCCC2)CC1 | -28.2%
87 | N#CCSc1ncnc2c1cnn2CCO | 23.9%
88 | COc1ccc(C(=O)NC(=S)Nc2ccc(S(N)(=O)=O)cc2)cc1 | 12%
89 | CCc1ccc(OCC(=O)OCC(=O)c2c(N)n(C)c(=O)n(C)c2=O)cc1 | 10.2%
